Test results published in the supplement of paper PMC10681739.
Whole data set: some 2,700 sequences, median “arbitrary fluorescence units” near 4,100, cut for the highest 2% near 54,000. This is one part of the list.

Target: T1, ETS1 (UniProt P14921)
T1 sequence: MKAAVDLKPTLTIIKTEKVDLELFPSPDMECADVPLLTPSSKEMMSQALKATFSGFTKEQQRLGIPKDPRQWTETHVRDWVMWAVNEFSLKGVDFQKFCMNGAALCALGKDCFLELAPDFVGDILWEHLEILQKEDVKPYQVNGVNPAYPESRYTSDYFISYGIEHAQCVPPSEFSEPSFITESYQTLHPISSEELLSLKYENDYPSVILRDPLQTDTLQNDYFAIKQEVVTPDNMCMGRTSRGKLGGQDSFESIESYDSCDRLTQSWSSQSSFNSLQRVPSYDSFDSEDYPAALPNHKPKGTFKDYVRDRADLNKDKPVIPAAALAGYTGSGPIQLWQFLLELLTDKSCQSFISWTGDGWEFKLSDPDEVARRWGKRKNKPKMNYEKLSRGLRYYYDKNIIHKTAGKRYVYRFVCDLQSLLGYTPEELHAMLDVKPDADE
Assay: ETS1 binding intensity (PBM fluorescence) (arbitrary fluorescence units); higher = stronger binding
Settings: ETS1 concentration 10 nM
Experimental: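 gcPBM on wild-type 36-bp genomic probes with two neighbouring ETS1 sites (4-24 bp apart). Recombinant human ETS1 (10 nM) was detected with anti-ETS1 antibody fluorescence. Values are medians over 3 replicate spots. The probes sit in constant array flanks that are not printed.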

| Sequence | ETS1 binding intensity |
| --- | --- |
| ACCCACTTCCCTCCTGTCCCTACCACATCCTTAACT | 5350 |
| CGAGACAGGCTCATCCGGCGCGGATGAGACAGGCTC | 4090 |
| TCCACTTCCGTCTCCAGCTCGCTCTCCAGGATGTGG | 31600 |
| CCCACTGCAGGAAAAAACAAGGACTTCCGCCTCCCT | 2050 |
| GAGACTTCCTGCCACCCTCAGGCCGAACTTCCTGCT | 41500 |
| GCTCAGCCCAGGAAACCATTATTTCCTCCTAGGCCT | 845 |
| TCTGGGAGGAAGCGCAGGAGACCTGGTTCCTGTTTC | 413 |
| GTCACCTTCCTGAGGGAGGGAGTGGCAGGAAACCCC | 1090 |
| AGAAACAGGAAGCTGCATTCAATGGTTTCCTGCCCA | 9800 |
| GAGTGAGTGGGTTTCCTGTGCGGAAACACCTTGCTT | 8190 |
| TGAGGCGGTTTCCTCGGCGCCTTTTCCGGCAGCGGC | 1360 |
| CACCGCTTCCGCCAGGGGCTTCTGGCGGAAGCCCGC | 17200 |
| GGAACGGAAGCGCGCGGCCTCGAGGCCCTTCCGGTG | 5560 |
| GAGGTGGGGAGGAAGAGCTGCCGGAAGTAGGCGGTG | 5440 |
| CCGGAGCGGAAGTGGCGATCGGAGCGGAAGTGGAGC | 23200 |
| TAGCCCAGCAGGATGTGGTGGTAGGATGTGGTTAGG | 2120 |
| TGCAGTCCGTCTTCCTGCTTCATCCGGTGGCCAGGC | 7210 |
| AAATGGCCACGCCGGAACCGGAACTACCTCCGAGTC | 1460 |
| GTCCACCCCGGAAACTCAAGGGAGGAAACTGACTGC | 2570 |
| AGGCTGCTTCCTTGTCTTTGCCAGCTTCCTCCTGTC | 2330 |
| GTTGCCGGAAATTGTCGAAGATTACCGGAAGCTACC | 22300 |
| TCCTTCTCATCCTGGAAACGGAAGTTTATTTTGAAG | 2570 |
| TGCACAGGAAATAAGCTACTCTTAAAGGAAATATGA | 8120 |
| CCCCGGTCCATTTCCGGGCTCCGGATATTTGGTATC | 29100 |
| TGTTACACAGGAAGTTGCATGGTTTCCTGACTTCTA | 15200 |

| Sequence | ETS1 binding intensity |
| --- | --- |
| GCCCGTAAGCCGGAAGGCGGCTTCCGGGAGCGCGTG | 11500 |
| AGGGCGGAAAGGCAGTTGCTCTGCAAAGGAAACGGC | 200 |
| TTAGCTTTACGGAAATTTGAAGAGGAAGTCTTTTTT | 332 |
| CCAGCTTCCTTAGCAACCACCTGGCCTCTTCCTGGG | 3030 |
| CCTTTACCTTCCTGACTTGTCGCTTTTCCTGGCTCG | 1060 |
| GAGATAAAAGAGAGGAAGTTTCCTGCTTGCGGCCTA | 2470 |
| ATCTCATGAGGTTTCCTGTACTTCCTGCCACTGCTG | 7820 |
| CACGGGGGCGGATGCAGAGGACCAGGAAGTTCGCCG | 2020 |
| CCCAGGAAGTTAGGCATTCTTAGTCACAGGATGAGA | 2070 |
| CCTGCTTGAGCTTCCTGCCTTTTCCTGAGCTTCTGA | 12800 |
| ATGTCAGAAACAGGATGTAGCTTCCTCTGTGTCAGG | 9620 |
| GTGGGGCCTCGGCTTCCGCAGGAAGTGGTCTTGGTG | 4020 |
| CAGAACCACTTCCTCTCATGACAGGAAACCAATGAA | 18600 |
| GAGCAGATAGAGGAAGTGGCAGGATCTCTCCTTTCT | 3470 |
| GGTCCGGAAGGGAGGAGAACACAAGCAGGATATAAC | 860 |
| AGGGCAGGAAGGAGGCACCCAATTTGTTTCCTGTGA | 1940 |
| GCTCCCGGCGGAAGCGGCTGCACTTCCGGTCCCCGC | 38000 |
| ATGCTGGGATGTTTGGGTAACACCCACTTCCTCTCC | 320 |
| ATCACCAGCCTTCCTGTGGGACCGGAAAGGCAGTAG | 2720 |
| CCTCTTACTTTTCCTGTCAGTGAGGAAGCTGTTTAC | 4410 |
| TGGAATCAATCTTCCTGCTGCAGGAAAGAGCCAGGC | 1120 |
| TCATCTCATCCTGTTTCTGCAACCAAGGAAGTCATC | 4460 |
| CACTGGGCTTCCTCTCCGCAGAGGCGGAACACGGCG | 2580 |
| TACTGAAGGGAAGTGACGACACAGCGGAAAGCCAAC | 314 |
| AGCAAGTCACTTCCTGTGTCAGTTTCCTGTGGCTGC | 45800 |

| Sequence | ETS1 binding intensity |
| --- | --- |
| AGGCAGACGTGCATCCGGGCGGATGATTAGCCGGTG | 6340 |
| GTTACTTCCTCTCCCCAGGTCTCTCGGTTTCCTCAT | 23600 |
| GGCCATTTCCGTTTTCTCTGAGTAACAGGAAATAAA | 52900 |
| TATCCCATTTCCTGGCCCTGCAGCATCCTGGTGGGG | 16000 |
| TTTGTTGACAGGAAAGCCGGGCTTCCTGTGAGGCCA | 2310 |
| GCAGAGGAAGTAGCTTACGCAAAGGCAGGAAGCATG | 2500 |
| AACACGGATACTCTCTCTCTGACGCAACTTCCTGTC | 2500 |
| CTGCAGCAGAAACGGAACAGGAAGCAGCCTCTGGGG | 1510 |
| GGGCCTAGGAAATGCCGCACTACAACTTCCGTCGGG | 992 |
| CGCCCCTGGGGCTTCCGCGGCGGAAGCCTAGCGTCC | 824 |
| GCCCTGCACCGGAAGGGAGGGCGGAAGCCACGGGAC | 9950 |
| TGAATGATTCACTTCCTTTCTTCCTGTGATAGTTAA | 12200 |
| CGCGATCTGCTTCCGGGTGTGCAGGAAACTGGGCGC | 20700 |
| CCAAGCACAGGAAGCACCCTGCCTTCCTGCCTCCTC | 4330 |
| ACAAAGCAGGATGCCCAAGAATACTTCCTTGCTTCT | 1390 |
| CGTCCTGACTTCCGGGGCGGGACGGAAGAGCGGGCG | 25800 |
| GGGGCCACTTCCCGGGGCCAGGCAGGAAGCCCGCCC | 3870 |
| AGACCTTGTGCATCCTGGGCAGGAAACCACAGGCTC | 2140 |
| AATGGGTCCTTCCTGAGGCTGATTTCCGCTCACTCT | 3120 |
| ACCCTTGACTCAGGAAGACAGGAAGTTTAACCATGA | 2650 |
| GACCAGGAGGAAGTTAGCTGTGGTTTCCGAGGTTAA | 1350 |
| GTAAAGAGGAAGCCGCCGCTTTAGTTTCCTCTTGTG | 928 |
| CGAACAGAGCCGCTTCCGCTTCCGCTCGCGCCGCGC | 19800 |
| CCAAGCTGGTTTCCTCTCCGGTTTCCTCCGGGGTGG | 3800 |
| GGCAGGAAGCGGTGTCTAAAGATGCCACTTCCTGGA | 6680 |

| Sequence | ETS1 binding intensity |
| --- | --- |
| ATTGCACATCCGTCTGGTGTTTGTGTTTCCTGTTGT | 12000 |
| CGCAACAGGAAATGACACACAGCACTTCCTCTCATA | 21600 |
| GAGCTGCAGGATGTGGTCAGGAGAGGAAGCGAGGCC | 1810 |
| CATAGGAGAGGGAAATGATAAGAGGAAATGGCTTCT | 471 |
| CCACGGGCCCATCCTGAGGGGACGGAAATGGTTTCA | 772 |
| ACCTTGAGGCAGGAAATAGCAGGAAACTCTAACCAC | 7200 |
| CCCCGGATGTTGATATGTCGTCTGCCCCGGAAACGG | 7350 |
| GGCTGCTTCCTGTGACAGTGAAATACATCCTTCAAG | 28800 |
| GCAAACTTCCTCTCACTACAGAGTTATTTCCTGGAA | 19400 |
| TCTGACTTCCCCGCTCGCCCGCGCCGCTTCCTCCTC | 924 |
| TCACTATCAGGAAGATGAAAGCAGGAAATCTACTTT | 303 |
| TACACTTCCCAGAAGTCCAGGCGGCAACTTCCGCTC | 4790 |
| CGAACCGGAAGCCGGGCCACGTGACCCGGAAGCGGC | 24800 |
| TTGGCTCTTCCTGGTTCTACAGTAGCTTCCTGACTT | 4110 |
| TGACCCCCGGAAGTCCCGCCCCGAATTCCGGCCCGC | 10200 |
| GTCAAGTGACTTCAGGAAGGAAGTGCCTTTTTCTAA | 335 |
| CCCAGCCTCACTTCCTGCCACATCCCTCACTGCAGC | 30400 |
| AGGGCGGAAACCACCGGCGCGGGTGACCGGAAGCCC | 5300 |
| CGGGCTATTATCCTGTGCCTTGCAGGATGTTTAGCA | 599 |
| CGGGGCGGCGGATGTTTGCGCAGCTTCCTTGAGATG | 2650 |
| GCGCCGGAAGCAGAGACGCGTTTCGGGAGGAAGGTG | 3580 |
| CTGGCCGACAGGATACAACTAAAGGAAATGTGCTAG | 602 |
| CTTATAATGCTTCCTCCTTCTCTTCCTCCCAGTAGG | 1960 |
| GCAGCTCATCTCTTCCGTAAGGAAGCTGGAACCCAG | 473 |
| TGTTTACTTCCGGCTTTTCGCCTAATTCCGGCGGCC | 55000 |

| Sequence | ETS1 binding intensity |
| --- | --- |
| GGTGAAGCGGAAACGCTTCAAACCGGGATGTTGCGG | 10200 |
| CAGGCCGGAAGCACCTGGGGCCGGGCAGGAAGGTCG | 9650 |
| GCTGAAGGCAGGAAGTGGAGAGCGGAAGTGAGCTGT | 15200 |
| GGGAGGGAAATGGAGCTCCCATGGGTGCTTCCTGGG | 390 |
| GCAAATTCAGGAAATGAGCCTGTTTCCTCCTATTAT | 4350 |
| CCTCAGGATGGCATCAGCCTGTGACCACTTCCTGTG | 2200 |
| GCTCACACTTCCCCGTGGTGTCTCAGGATGAGGTAA | 406 |
| TTACACAGGGCAGGATGTGGGGGAAGTTACAGACAG | 2170 |
| TTGGGACCCGCTATCCGCTCTTTCCGTCCTCCAGGC | 293 |
| AAACGGCGGAAGTAGGCCGCAGCGCTTCCTCAGTAT | 9980 |
| AATAGAGGGAGAAGGAAATGGGATGTTAGAAGGTGA | 314 |
| GACAGTCCCAGGAAGTTGTAAGCTTCCTGTCCTTGG | 6260 |
| GCGCAATTTCCTGTGGCCTTTTCATTTCCTGCTGGG | 28800 |
| CTGAGTTCCGCCTGCGGGACCTGAGGCTTCCTGCAG | 2320 |
| TCACAGAGCACAGGAAATACTTCCGCCCGCCCGTCA | 18400 |
| TGGGTGGCAGGAAGTGCTGTGGTTTCCTCCACCTGA | 8520 |
| CAGAGGGACTTCCCGCCAAAGCTCTTCCGGTTTTCA | 11400 |
| ATTGATGTGGTTCCGTTGTACAGGAAGTGGCATTTA | 4260 |
| CCACTTCCGGCATGCGCAGGGACGCACCTTCCGGCT | 109000 |
| GAGCTGCGGAAGGGAGAGTCAGCGCTTCCGAGGCGG | 242 |
| CTGACAACATCCTCATGAGTGCATTTCCCTTCTGCA | 2790 |
| CACTCACTTTCCTGTTAGGAAAGTTTCCTGTTAGGG | 5530 |
| TTGCCGGAAATGACGAACGAGTCAACCGGATCGGTG | 8930 |
| GCCTCCCGACATCCTGGGAGCCGGAAGGGGCGTTGC | 6200 |
| CATAGTTTCCTCTGAGGTAATAAACAGGATTCCCAC | 2850 |
